Laboratory results as given in PubChem BioAssay AID1963429 (Molecular Pharmacology Branch, DTP, NCI, 2024).
Some entries of the source have several records that differ or are many. The list is limited to them. There may be further records. The records of an entry are repeats (runs, samples, wells, individuals or studies). Marks such as [2022-09] give the month of the run.

System: 126254-015-R-J1-PDC complex spheroid growth, % test/control
Test: Anticancer human tumor 126254-015-R-J1-PDC patient-derived soft tissue sarcoma cell line growth inhibition [Asc]
Details: compound alone 3 µM; stronger effect = lower value
Procedure: Multicellular complex tumor spheroid response to apoptosis pathway targeting inhibitors Alrizomadlin, Pelcitoclax, and Dasminapant in combination with a variety of drugs and investigational agents in selected tumor cell lines
The MDM2 inhibitor alrizomadlin, the Bcl-2/Bcl-xL inhibitor pelcitoclax, and the IAPs inhibitor dasminapant were evaluated both individually and in combination with standard of care and investigational anticancer small molecules within a complex spheroid model of solid tumors. . Complex spheroids include a stromal component modeled by human endothelial cells (HUVEC) and fibroblasts modeled by human mesenchymal stem cells (MSCs). The concentration ranges selected for each drug and investigational agent were based upon clinically achievable concentrations if the clinical Cmax of the agent was known.
Compounds. […] If the clinical Cmax for an agent had not been determined, the highest concentration tested was 10 microM. […]
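Further: spheroids exposed to compound for seven days; 100% = DMSO vehicle control wells.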

## CCN1C(C(=O)NC23CCC(C(=O)O)(CC2)CC3)C(c2cccc(Cl)c2F)C2(C(=O)Nc3cc(Cl)ccc32)C12CCCCC2 (stereo unspecified)
  viability, T/C: 92.1, 104, 88.6, 91.8, 91.2, 101, 94.7, 114, 100, 98.4, 93, 93.7, 91.5% [2022-09] and 103% [2022-10]
